Experimental data: publication PMC4336329 (PLoS ONE, 2015)
About 2,200 (0.71%) of roughly 310,000 compounds showed an effect of 50% or more. The effect is printed as a negative number. This is one part of the list.

Target: human ether-à-go-go-related gene (hERG) potassium channel (human, UniProt Q12809)
Assay: primary screen, population patch clamp on CHO cells stably expressing hERG

human ether-à-go-go-related gene (hERG) potassium channel, sequence (Q12809 whole entry, looked up): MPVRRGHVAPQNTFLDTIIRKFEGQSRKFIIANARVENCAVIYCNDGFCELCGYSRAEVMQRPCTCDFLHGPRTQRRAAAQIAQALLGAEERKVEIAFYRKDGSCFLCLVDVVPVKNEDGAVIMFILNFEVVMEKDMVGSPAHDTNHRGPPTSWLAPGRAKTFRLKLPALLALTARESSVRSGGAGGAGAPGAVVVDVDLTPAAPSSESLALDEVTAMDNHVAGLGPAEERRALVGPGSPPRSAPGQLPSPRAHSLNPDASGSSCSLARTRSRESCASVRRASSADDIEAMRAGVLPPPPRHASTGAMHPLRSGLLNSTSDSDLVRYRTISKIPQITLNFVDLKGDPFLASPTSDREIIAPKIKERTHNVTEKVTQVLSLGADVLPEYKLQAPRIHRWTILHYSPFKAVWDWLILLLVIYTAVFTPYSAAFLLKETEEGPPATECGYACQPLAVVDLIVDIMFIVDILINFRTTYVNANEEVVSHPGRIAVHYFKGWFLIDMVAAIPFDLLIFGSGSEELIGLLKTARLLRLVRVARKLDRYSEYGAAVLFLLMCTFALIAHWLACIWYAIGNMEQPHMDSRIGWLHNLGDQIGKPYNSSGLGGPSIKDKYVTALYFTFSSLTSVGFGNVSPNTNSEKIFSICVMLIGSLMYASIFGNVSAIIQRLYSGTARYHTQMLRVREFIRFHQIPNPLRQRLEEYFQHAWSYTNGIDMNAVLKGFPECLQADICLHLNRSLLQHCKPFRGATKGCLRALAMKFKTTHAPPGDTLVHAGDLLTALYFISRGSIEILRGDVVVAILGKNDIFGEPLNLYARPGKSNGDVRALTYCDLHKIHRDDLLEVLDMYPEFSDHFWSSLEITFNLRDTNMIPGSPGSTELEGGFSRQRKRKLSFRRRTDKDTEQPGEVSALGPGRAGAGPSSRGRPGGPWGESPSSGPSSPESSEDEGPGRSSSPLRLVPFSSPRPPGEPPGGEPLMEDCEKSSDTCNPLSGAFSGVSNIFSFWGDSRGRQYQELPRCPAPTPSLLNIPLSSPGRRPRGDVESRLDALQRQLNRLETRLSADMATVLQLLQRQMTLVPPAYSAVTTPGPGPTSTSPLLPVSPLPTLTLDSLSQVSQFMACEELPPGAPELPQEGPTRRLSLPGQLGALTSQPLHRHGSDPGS

Question: How did the “hERG current change (%, negative = inhibition) at 1uM” value turn out when `CN(CCO)c1ncnc2c1sc1nc(N3CCOCC3)c3c(c12)CCC3` was run?
Answer: 3.68%

Question: How did the “hERG current change (%, negative = inhibition) at 1uM” value turn out when `CCCn1c(SCC(=O)Nc2ccc(NC(C)=O)cc2)nc2c1c(=O)n(C)c(=O)n2C` was run?
Answer: 1.36%

Question: With `COC(=O)c1c(NC(=O)c2cccnc2)sc(C)c1C` as the compound, how does the “hERG current change (%, negative = inhibition) at 1uM” value read?
Answer: -4.63%

Question: With `Cc1cc(NC(=O)CN2CCCC(C)C2)no1.O=C(O)C(=O)O` (stereo not shown) as the compound, how does the “hERG current change (%, negative = inhibition) at 1uM” value read?
Answer: 9.92%

Question: `O=C(Nc1ccc(N2CCOCC2)cc1)c1ccc(Br)o1` was tested. Which “hERG current change (%, negative = inhibition) at 1uM” value did it give?
Answer: 10.1%

Question: With `Cc1ccc(NC2=C(Cl)C(=O)N(C3CCCCC3)C2=O)cc1` as the compound, how does the “hERG current change (%, negative = inhibition) at 1uM” value read?
Answer: 17.2%

Question: Which “hERG current change (%, negative = inhibition) at 1uM” value does the source give for `CN(C)CCCN=Cc1c(O)n(Cc2ccc3c(c2)OCO3)c(=O)c2ccccc12` here?
Answer: -3.18%

Question: `COc1ccc(C)cc1NC(=O)c1ccc2c(=O)n3c(nc2c1)CCCCC3` was tested. Which “hERG current change (%, negative = inhibition) at 1uM” value did it give?
Answer: 5.61%

Question: With `CO/N=C/c1ccc(Sc2ccccc2N)c([N+](=O)[O-])c1` as the compound, how does the “hERG current change (%, negative = inhibition) at 1uM” value read?
Answer: 3.17%

Question: With `COc1ccc(Cl)cc1NC(=O)CN(C)CC(=O)Nc1ccccc1-c1ccccc1` as the compound, how does the “hERG current change (%, negative = inhibition) at 1uM” value read?
Answer: 7.14%

Question: How did the “hERG current change (%, negative = inhibition) at 1uM” value turn out when `O=C(O)c1ccc(S(=O)(=O)N2CCOCC2)o1` was run?
Answer: 15.7%

Question: `Cc1ccc(S(=O)(=O)n2nc(OC(=O)C3CCCCC3)cc2N)cc1` was tested. Which “hERG current change (%, negative = inhibition) at 1uM” value did it give?
Answer: -1.51%

Question: Which “hERG current change (%, negative = inhibition) at 1uM” value does the source give for `O=C(c1ccc(-c2ccccc2)cc1)c1ccc([N+](=O)[O-])cc1` here?
Answer: 11.5%

Question: Which “hERG current change (%, negative = inhibition) at 1uM” value does the source give for `CNc1ccc(S(=O)(=O)NCC(=O)NCCCc2ccccc2)cc1[N+](=O)[O-]` here?
Answer: 9.74%

Question: Which “hERG current change (%, negative = inhibition) at 1uM” value does the source give for `CCCc1cc(C(=O)Nc2sc(C(C)=O)c(C)c2C(=O)OCC)no1` here?
Answer: 0.0946%

Question: `CC(=O)c1cccc(NC(=O)N2CCCC2C(=O)Nc2ccccc2C)c1` (stereo not shown) was tested. Which “hERG current change (%, negative = inhibition) at 1uM” value did it give?
Answer: 0.19%

Question: Which “hERG current change (%, negative = inhibition) at 1uM” value does the source give for `Cc1cc(C(=O)NNC(=O)/C=C/c2ccccc2Cl)c(C)o1` here?
Answer: 9.59%

Question: Which “hERG current change (%, negative = inhibition) at 1uM” value does the source give for `COCC(=O)N1CCC(Oc2ccc(C(=O)N(C)C3CCCCC3)cc2)CC1` here?
Answer: 13.7%

Question: How did the “hERG current change (%, negative = inhibition) at 1uM” value turn out when `O=C(CN1CCN(Cc2ccccc2)CC1)Nc1ccccc1` was run?
Answer: 9.31%

Question: `Cc1ccc(CCN2CC(C(=O)NCc3cccnc3)CC2=O)cc1` (stereo not shown) was tested. Which “hERG current change (%, negative = inhibition) at 1uM” value did it give?
Answer: 6.73%

Question: Which “hERG current change (%, negative = inhibition) at 1uM” value does the source give for `CN(C)c1nc(SCC(=O)Nc2ccccc2)nc(N2CCOCC2)n1` here?
Answer: 13.9%

Question: With `O=C(NC1CCCC1)C(=O)N(Cc1cccnc1)C(C(=O)NC1CCCC1)c1ccco1` (stereo not shown) as the compound, how does the “hERG current change (%, negative = inhibition) at 1uM” value read?
Answer: 3.81%

Question: With `C#CCn1cc(/C=N/NC(=O)c2cc3ccccc3o2)c2ccccc21` as the compound, how does the “hERG current change (%, negative = inhibition) at 1uM” value read?
Answer: 15.5%

Question: How did the “hERG current change (%, negative = inhibition) at 1uM” value turn out when `COc1ccc(NC(=O)N2CCn3c2nc2ccccc23)cc1` was run?
Answer: -5.98%

Question: How did the “hERG current change (%, negative = inhibition) at 1uM” value turn out when `COc1cc(C2c3[nH]c4ccccc4c3C[C@@H]3C(=O)N(Cc4ccco4)CC(=O)N23)cc(OC)c1OC` (stereo partly shown) was run?
Answer: 3.78%

Question: With `COc1cccc(NC(=O)C2C3C=CC4(O3)C2C(=O)N(CCCN2CCCC(C)C2)C4C(=O)NC2CCCCC2C)c1` (stereo not shown) as the compound, how does the “hERG current change (%, negative = inhibition) at 1uM” value read?
Answer: 16.9%

Question: With `Cc1c(C(=O)/C=C/N(C)C)nnn1-c1ccc(Cl)c(Cl)c1` as the compound, how does the “hERG current change (%, negative = inhibition) at 1uM” value read?
Answer: 4.58%

Question: `COc1ccc(-c2n[nH]c(=S)n2/N=C/C=C\c2ccccc2OC)cc1` was tested. Which “hERG current change (%, negative = inhibition) at 1uM” value did it give?
Answer: 21.1%

Question: `Cc1cc(C(=O)COC(=O)CCCN2C(=O)c3ccccc3C2=O)c(C)n1C` was tested. Which “hERG current change (%, negative = inhibition) at 1uM” value did it give?
Answer: 5.18%

Question: For `Cn1c(=O)[nH]c(=O)c2c1nc(NCCCn1ccnc1)n2Cc1cccc(Br)c1`, which “hERG current change (%, negative = inhibition) at 1uM” value is on record?
Answer: -2.32%

Question: For `COc1cccc(NS(=O)(=O)c2cc(C)sc2C)c1`, which “hERG current change (%, negative = inhibition) at 1uM” value is on record?
Answer: 13.2%

Question: How did the “hERG current change (%, negative = inhibition) at 1uM” value turn out when `CCc1cccc2c(=O)c(C(=O)N3CCOCC3)c[nH]c12` was run?
Answer: -1.82%

Question: How did the “hERG current change (%, negative = inhibition) at 1uM” value turn out when `Cc1occc1-c1n[nH]c(=S)n1-c1ccccc1` was run?
Answer: 11.2%

Question: For `C[C@H](NS(=O)(=O)c1ccc(Cl)cc1)C(=O)OCC(=O)NC(=O)Nc1ccc2c(c1)OCCO2`, which “hERG current change (%, negative = inhibition) at 1uM” value is on record?
Answer: 9.01%

Question: With `O=C(c1cn(Cc2ccccc2)nc1-c1cccnc1)N1CCN(Cc2c(F)cccc2Cl)CC1` as the compound, how does the “hERG current change (%, negative = inhibition) at 1uM” value read?
Answer: 4.63%

Question: Which “hERG current change (%, negative = inhibition) at 1uM” value does the source give for `O=C(CCCCCNC(=O)c1ccccc1)N/N=C/c1ccc(O)cc1O` here?
Answer: 3.22%

Question: Which “hERG current change (%, negative = inhibition) at 1uM” value does the source give for `CCCCCCCSc1cc(OC)c(CCN(C)C)cc1OC.O=C(O)/C=C\C(=O)O` here?
Answer: -5.92%

Question: With `CC1=CC(C)(C)n2c(O)c(N=NC(N)=S)c3cccc1c32` as the compound, how does the “hERG current change (%, negative = inhibition) at 1uM” value read?
Answer: 8.08%

Question: `OCC1(CC2CCCCO2)CCN(C/C=C/c2ccccc2)CC1` (stereo not shown) was tested. Which “hERG current change (%, negative = inhibition) at 1uM” value did it give?
Answer: -2.99%

Question: How did the “hERG current change (%, negative = inhibition) at 1uM” value turn out when `Cc1cc(=O)n(-c2ccccc2)n1-c1ccccc1` was run?
Answer: -0.718%

Question: `COc1ccccc1Nc1nnc(SCC(=O)Nc2cc(C)on2)s1` was tested. Which “hERG current change (%, negative = inhibition) at 1uM” value did it give?
Answer: 1.86%

Question: How did the “hERG current change (%, negative = inhibition) at 1uM” value turn out when `CCOc1ccc(S(=O)(=O)NCc2ccco2)c2ccccc12` was run?
Answer: -3.63%

Question: How did the “hERG current change (%, negative = inhibition) at 1uM” value turn out when `N=C1/C(=C/c2ccc(-c3cccc(C(=O)O)c3)o2)C(=O)N=C2SC(CC(=O)N3CCOCC3)=NN12` was run?
Answer: 12.8%

Question: With `CCCCCCCC1(C)NC(=O)N(c2ccccc2)N1` (stereo not shown) as the compound, how does the “hERG current change (%, negative = inhibition) at 1uM” value read?
Answer: 10.1%

Question: With `CCCCCCCCCC(=O)NNC(=O)c1c(O)c2ccccc2n(CCC)c1=O` as the compound, how does the “hERG current change (%, negative = inhibition) at 1uM” value read?
Answer: 11.1%

Question: How did the “hERG current change (%, negative = inhibition) at 1uM” value turn out when `COCCCNC(=O)CCn1c(=O)c2ccccc2n(CC(=O)NCCC2=CCCCC2)c1=O` was run?
Answer: 17.3%

Question: Which “hERG current change (%, negative = inhibition) at 1uM” value does the source give for `Cl.Oc1ccc(Nc2ncnc3c2oc2ccccc23)cc1` here?
Answer: 9.49%

Question: `COc1cc2c(cc1OC)C(COc1ccc(F)cc1)NCC2` (stereo not shown) was tested. Which “hERG current change (%, negative = inhibition) at 1uM” value did it give?
Answer: -2.56%

Question: How did the “hERG current change (%, negative = inhibition) at 1uM” value turn out when `COc1ccc(-c2nnn(CC(=O)N3CCN(c4ccccc4OC)CC3)n2)cc1` was run?
Answer: 7.71%

Question: `COc1ccc(OC)c(/C=N/NC(=O)c2ccc(Cn3cc([N+](=O)[O-])cn3)o2)c1` was tested. Which “hERG current change (%, negative = inhibition) at 1uM” value did it give?
Answer: 4.33%

Question: For `O=C(Nc1cccc(C(=O)N2CCOCC2)c1)c1cncc(Br)c1`, which “hERG current change (%, negative = inhibition) at 1uM” value is on record?
Answer: 9.67%

Question: How did the “hERG current change (%, negative = inhibition) at 1uM” value turn out when `O=C(CN(Cc1ccccc1Cl)C(=O)c1csnn1)NCc1ccc(F)cc1` was run?
Answer: -0.0793%

Question: How did the “hERG current change (%, negative = inhibition) at 1uM” value turn out when `CCOC(=O)c1ccc(-[n+]2c(-c3ccccc3)cc(-c3ccccc3)cc2-c2ccccc2)cc1.[O-][Cl+3]([O-])([O-])[O-]` was run?
Answer: 8.22%

Question: With `Cc1ccc(C)c(N2CCN(C(=O)Cc3cn(C)c4ccccc34)CC2)c1` as the compound, how does the “hERG current change (%, negative = inhibition) at 1uM” value read?
Answer: 9.64%

Question: For `O=C(Nc1ccc(N2CCOCC2)c2nonc12)C1CCCC1`, which “hERG current change (%, negative = inhibition) at 1uM” value is on record?
Answer: 1.61%
